This is an account of results in PubChem BioAssay AID1508642 (National Center for Advancing Translational Sciences (NCATS), 2021).

Among all 43,000 compounds or so, about 200 (0.47%) were called active. About 12% were inconclusive and are not listed. The call rests on the fitted dose curve; in most records, active means well fitted cell-killing curve with a large enough effect; inconclusive means small, poorly fitted or top-dose-only effect, or effect the other way; inactive means flat fitted curve, though single readings scatter. The list shows a part of the results.
On the % scale 0 is the no-effect control and ±100 the full control effect.

The assay can be described thus: Cell viability qHTS assay in S16 Pmp22-F2sN cells. Further: nearly all actives have a fitted effect of over 65% in size. Conditions: S16 Pmp22-F2sN Schwann cells (luciferase reporters placed in the Pmp22 gene) viability, CellTiter-Glo, 24 h; series mostly up to 57.5 µM; activity change, negative = cytotoxicity: at the top concentration. In a few lines:
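Rat S16 Schwann reporter line, 24 h treatment with library compounds delivered at 23 nL per well. Cell viability by CellTiter-Glo luminescence.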
For `COc1cccc(C2=NS(=O)(=O)N(C)C(C(=O)Nc3cccc(O)c3)=C2)c1`, the “activity change, negative = cytotoxicity” value is inactive: -1.45%. With `CCn1cc(C(=O)NCCCN(CC(C)C)CC(C)C)c(=O)c2cc(S(=O)(=O)N3CCc4ccccc4C3)ccc21` the figure was inactive: -5.58%; with `Cc1ccc(-c2nnc(SCC(=O)NCCC(C)C)nc2-c2ccc(C)cc2)cc1`, inactive: -19%. With `CCCCN1C(=O)C(O)(c2c(C)[nH]c3ccccc23)c2cc(Br)ccc21` (stereo unspecified) the figure was inactive: -1.74%; with `Cc1cc2nn(-c3ccc(F)cc3)nc2cc1NC(=O)c1cc(Cl)ccc1Cl`, inactive: -3.97%. For the molecule `CCCN(CCC)c1nn2c(=O)c(C(=O)NCc3cccc(OC)c3)cnc2s1`, the “activity change, negative = cytotoxicity” value is inactive: 7.45%. With `O=C(NCc1ccccc1)C(=O)NCC(c1ccco1)S(=O)(=O)c1ccccc1` (stereo unspecified), the “activity change, negative = cytotoxicity” value is inactive: 10.7%. In the case of `COc1ccc(N2CCN(C(CNC(=O)C(=O)NCc3ccc(F)cc3)c3cccnc3)CC2)cc1` (stereo unspecified), the “activity change, negative = cytotoxicity” value was inactive: -19.2%.

Turning to `CCc1ccc(NC(=O)N(Cc2c[nH]c3ccccc23)C2CCCCCC2)cc1`, the “activity change, negative = cytotoxicity” value was inactive: -24.2%.

On to `Cc1sc(-c2cc3ccccc3oc2=O)nc1-c1ccc(Cl)cc1`, for which the “activity change, negative = cytotoxicity” value was inactive: -25.9%. On to `COC(=O)c1cc(S(=O)(=O)N2CCN(c3ccc(C)cc3C)CC2)cn1C`, for which the “activity change, negative = cytotoxicity” value is inactive: 15.2%.

Take `Cc1ccc(-c2cc(C(=O)Oc3ccccc3)c3cccc(C)c3n2)cc1`: the “activity change, negative = cytotoxicity” value was inactive: 4.84%. In the case of `COc1ccc(NC(=O)c2sc3nc[nH]c(=O)c3c2C)cc1`, the “activity change, negative = cytotoxicity” value was inactive: 1.8%. Regarding `O=C1CN(C(=O)C2CCCCC2)C(c2ccccc2)c2cc(F)ccc2N1` (stereo unspecified), the “activity change, negative = cytotoxicity” value was inactive: -16.4%.

Take `CCOc1ccc(C2c3c(oc4ccc(C)cc4c3=O)C(=O)N2c2nc(C)c(C)s2)cc1OC` (stereo unspecified): the “activity change, negative = cytotoxicity” value is inactive: -1.54%.

Take `COc1ccc(-c2noc(-c3ccc(N4CCCCC4)c([N+](=O)[O-])c3)n2)cc1`: the “activity change, negative = cytotoxicity” value was inactive: 5.09%. `CCCCCCOc1ccc(-c2nc3ccc(Br)cc3c(=O)o2)cc1`: the “activity change, negative = cytotoxicity” value is inactive: 17%.

Turning to `O=C1CC(c2ccccc2)Cc2[nH]c(=O)c(-c3nc(-c4ccc(F)cc4)cs3)cc21` (stereo unspecified), the “activity change, negative = cytotoxicity” value was inactive: -10.6%.

For the molecule `CC(C)Oc1ccc(CNC(=O)C2COc3ccccc3C2)cc1` (stereo unspecified), the “activity change, negative = cytotoxicity” value is inactive: 1.7%. For `O=C(CN1C(=O)COc2ccc(S(=O)(=O)N3CCCC3)cc21)N1CCN(c2ccccc2F)CC1` the value was inactive: -13.3%. With `Cc1ccccc1-c1nc(CS(=O)CC(=O)NCCc2ccc(Cl)cc2)c(C)o1` (stereo unspecified) the figure was inactive: -0.739%; with `Cc1ccc(C)c(CSc2c(C(C)C)cnc3c2c(=O)n(C)c(=O)n3C)c1`, inactive: -1.72%. As for `CN1CCN(C(=O)c2cnn(-c3cccc(F)c3)c2C2CCN(C(=O)OC(C)(C)C)CC2)CC1`, the “activity change, negative = cytotoxicity” value was inactive: 15.3%. With `CC(C)c1ccc(CNc2nc(-c3ccco3)nn2S(=O)(=O)c2ccccc2)cc1` the figure was inactive: -9.18%. For `Cc1csc2nc(COc3ccc(NC(=O)COc4ccc(F)cc4)cc3)cc(=O)n12` the value was inactive: 10.2%.

For `CCOc1ccc(/C=C/c2nc(C#N)c(N(C)C)o2)cc1`, the “activity change, negative = cytotoxicity” value was inactive: -0.199%. Regarding `COc1ccc(N2CCN(C(CNC(=O)c3ccc(C)cc3)c3ccc4c(c3)OCO4)CC2)cc1` (stereo unspecified), the “activity change, negative = cytotoxicity” value was inactive: -3.13%.

For the molecule `CCOC(=O)c1cc(-c2ccc(C)cc2)n(CCC(=O)NCc2ccccc2)c1C`, the “activity change, negative = cytotoxicity” value is inactive: 10.2%. `Cc1ccc(-c2nc3scc(CCNS(=O)(=O)c4ccc(C)c(C)c4)n3n2)cc1`: the “activity change, negative = cytotoxicity” value was inactive: 7.15%.

As to `Cc1ccc(-c2noc(-c3cccnc3NCc3ccc(Cl)cc3)n2)cc1`, the “activity change, negative = cytotoxicity” value is inactive: 2.89%.

As to `Cc1cccc(OCC(=O)Nc2ccc(C(=O)OCc3cc(=O)n4nc(C5CC5)sc4n3)cc2)c1`, the “activity change, negative = cytotoxicity” value was inactive: 10.8%. On to `COC(=O)c1ccc(NC(=O)CSc2ccc(-c3cccs3)nn2)cc1`, for which the “activity change, negative = cytotoxicity” value was inactive: -7.74%. For `C#CCOc1ccc(C2C(C(=O)OC)=C(C)NC3=C2C(=O)c2ccccc23)cc1OCC` (stereo unspecified) the value was inactive: -4.03%; for `CCOc1ccc(Sc2cc(C(=O)NCCCOC)c3ccccc3n2)cc1`, inactive: -4.17%. With `CCc1ccc(NC(=O)C(Cc2ccccc2)NS(=O)(=O)c2ccc3c(c2)CCN3C(C)=O)cc1` (stereo unspecified) the figure was inactive: -12.7%; with `Cc1cc(C)c(NC(=O)c2cc(CN3CCOCC3)on2)c(C)c1`, inactive: -4.49%. For `COc1ccc2cc(S(=O)(=O)c3ccccc3F)c(=O)oc2c1`, the “activity change, negative = cytotoxicity” value was inactive: 1.15%.

Turning to `Cc1cccc(C)c1NC(=O)C1CCCN(S(=O)(=O)c2c(C)noc2/C=C/N(C)C)C1` (stereo unspecified), the “activity change, negative = cytotoxicity” value is inactive: -0.28%. For `COc1ccccc1CNC(=O)c1ccc(NC(=O)N2CC(C)Sc3ccccc32)cc1` (stereo unspecified) the value was inactive: 8.89%.

`CCOc1ccc(NC(=O)CSc2nnc(CC)c(CC)n2)cc1`: the “activity change, negative = cytotoxicity” value is inactive: -3.62%. `O=C(Nc1nnc(S(=O)(=O)N2CCCCC2)s1)c1ccc(Cl)cc1`: the “activity change, negative = cytotoxicity” value was inactive: 1.36%.

As for `CC(=O)Nc1ccc(NS(=O)(=O)c2ccc3c(c2)CCCN3C(C)=O)cc1`, the “activity change, negative = cytotoxicity” value was inactive: 3.14%. For `CCc1ccc(-c2[nH]c3c(c2-c2c(-n4cccc4)n(C)c(=O)[nH]c2=O)c(=O)[nH]c(=O)n3C)cc1` the value was inactive: 1.18%. For `COc1ccc(-n2ncc(C(=O)Nc3ccc(C)cc3Cl)c2C2CCN(C(=O)OC(C)(C)C)CC2)cc1` the value was inactive: -28.8%. With `COc1ccc(N2CC(NC(=O)c3cccs3)CC2=O)cc1OC` (stereo unspecified) the figure was inactive: 9.54%; with `O=C(Nc1ccc(F)cc1)c1ccc(-n2cnnc2)cc1`, inactive: 20%; with `CC1(C)CC(=O)c2cc(C(=O)Nc3ccc(Br)cc3)c(=O)n(-c3ccc(Cl)cc3)c2C1`, inactive: 2.09%.

Regarding `COCCCn1c(=N)c(S(=O)(=O)c2ccccc2)cc2c(=O)n3cccc(C)c3nc21`, the “activity change, negative = cytotoxicity” value is inactive: 21.4%. For `Cc1ccc(C2c3cccn3CCN2S(=O)(=O)c2ccc([N+](=O)[O-])cc2)cc1` (stereo unspecified) the value was inactive: -21.9%; for `COc1ccc(Nc2oc(/C=C/c3ccc(F)cc3)nc2C#N)cc1`, inactive: 1.63%.

For the molecule `COc1ccccc1N1CCN(C(=O)CCSCc2ccccc2F)CC1`, the “activity change, negative = cytotoxicity” value was inactive: -1.56%.

Turning to `Cc1oc(-c2ccccc2F)nc1Cn1c(SCc2ccccc2F)nc2ccncc21`, the “activity change, negative = cytotoxicity” value was inactive: -17.2%. Consider `Cc1ccccc1OCc1nc2c3cnn(-c4ccccc4Br)c3ncn2n1`, for which the “activity change, negative = cytotoxicity” value is inactive: 6.63%.

As for `COc1ccc(CNC(=O)c2cc3c(=O)n(Cc4cccs4)ccc3nc2C)cc1`, the “activity change, negative = cytotoxicity” value is inactive: 0.626%. With `COc1ccc(-c2nc3ccccc3o2)cc1NC(=O)c1ccc(N2CCC(C)CC2)c([N+](=O)[O-])c1` the figure was inactive: 0.734%; with `Cc1ccc2nc(N3CCN(C(=O)C4COc5ccccc5O4)CC3)sc2c1` (stereo unspecified), inactive: -11.9%. With `Cc1ccnc(NS(=O)(=O)c2ccc(NC(=O)c3cc(=O)c4ccc(C)c(C)c4o3)cc2)n1` the figure was inactive: 19.3%. In the case of `Cc1ccc(C(=O)c2cn(Cc3ccc(F)cc3)c3nc(C)ccc3c2=O)cc1`, the “activity change, negative = cytotoxicity” value is inactive: -0.569%. With `CCOC(=O)c1cc(-c2ccc(C)cc2)n(CC(=O)Nc2cccc(C(C)=O)c2)c1C` the figure was inactive: 14.3%. As for `CCOC(=O)c1sc(NC(=O)c2nc(SCC)ncc2Cl)c(C(=O)OCC)c1C`, the “activity change, negative = cytotoxicity” value was inactive: -3.36%. In the case of `CN(C)CCNC(=O)Cc1ccc(NC(=O)N2CCCCc3ccccc32)cc1`, the “activity change, negative = cytotoxicity” value is inactive: 15.8%.
